Data: the supplement of paper PMC10369915
The other results are listed elsewhere or left out. Rule as the data show it: active = 3.2 or more and inactive = the rest. The signal is at background level for most entries.

Experiments:
Assay in all cases: enrichment score (SH2-bound / input frequency) (ratio); bacterial display of known human phosphotyrosine sites (pTyr-Var adds point mutants) read by sequencing; higher = stronger binding; tyrosines were phosphorylated by kinases first
Settings in all cases: peptide library: pTyr-Var
SHP2 C-SH2 domain E139D = target: SHP2 C-SH2 domain E139D
[1] = target: SHP2 C-SH2 domain wild-type
SHP2 N-SH2 domain L43F = target: SHP2 N-SH2 domain L43F
SHP2 N-SH2 domain T42A = target: SHP2 N-SH2 domain T42A
SHP2 N-SH2 domain T52S = target: SHP2 N-SH2 domain T52S
[2] = target: SHP2 N-SH2 domain wild-type

Measured: enrichment score
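Also: displayed peptides selected on beads carrying the immobilized SH2 domain, with library peptides lacking any tyrosine serving as negative controls.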

B1: KIAA1210_Y564 (peptide)
chain: QSSEGYGLGDR
inactive: SHP2 C-SH2 domain E139D 0.557 | [1] 0.392 | SHP2 N-SH2 domain L43F 0.38 | SHP2 N-SH2 domain T42A 0.412 | SHP2 N-SH2 domain T52S 0.34 | [2] 0.299

B2: KIAA1614_Y1083_N1078D (peptide)
chain: DRSSLYLVAGP
inactive: SHP2 C-SH2 domain E139D 0.979 | [1] 0.796 | SHP2 N-SH2 domain L43F 0.801 | SHP2 N-SH2 domain T42A 0.968 | SHP2 N-SH2 domain T52S 0.822 | [2] 0.872

B3: KIAA1804_Y724 (peptide)
chain: TESALYGCTVL
inactive: SHP2 C-SH2 domain E139D 1.08 | [1] 1.48 | SHP2 N-SH2 domain L43F 1.35 | SHP2 N-SH2 domain T42A 0.91 | SHP2 N-SH2 domain T52S 0.962 | [2] 1.42

B4: KIAA1804_Y724_L729V (peptide)
chain: TESALYGCTVV
inactive: SHP2 C-SH2 domain E139D 0.852 | [1] 1.05 | SHP2 N-SH2 domain L43F 0.703 | SHP2 N-SH2 domain T42A 0.726 | SHP2 N-SH2 domain T52S 0.648 | [2] 1.22

B5: KIF4B_Y684 (peptide)
chain: DRKRQYELLKL
inactive: SHP2 C-SH2 domain E139D 0.973 | [1] 0.808 | SHP2 N-SH2 domain L43F 0.818 | SHP2 N-SH2 domain T42A 0.603 | SHP2 N-SH2 domain T52S 0.712 | [2] 1.12

B6: KIF4B_Y684_Y684C (peptide)
chain: DRKRQCELLKL
inactive: SHP2 C-SH2 domain E139D 1.35 | [1] 1.43 | SHP2 N-SH2 domain L43F 0.979 | SHP2 N-SH2 domain T42A 1.02 | SHP2 N-SH2 domain T52S 1.24 | [2] 1.46

B7: KIR3DS1_Y221_L220P (peptide)
chain: VVTGPYEKPSL
inactive: SHP2 C-SH2 domain E139D 0.673 | [1] 0.573 | SHP2 N-SH2 domain L43F 0.696 | SHP2 N-SH2 domain T42A 0.581 | SHP2 N-SH2 domain T52S 0.744 | [2] 0.801

B8: KIT_Y547 (peptide)
chain: ILTYKYLQKPM
inactive: SHP2 C-SH2 domain E139D 0.766 | [1] 0.669 | SHP2 N-SH2 domain L43F 0.783 | SHP2 N-SH2 domain T42A 0.625 | SHP2 N-SH2 domain T52S 0.797 | [2] 0.609

B9: KIT_Y547_K550I (peptide)
chain: ILTYKYLQIPM
inactive: SHP2 C-SH2 domain E139D 2 | SHP2 N-SH2 domain L43F 3.16 | [2] 2.05
active: [1] 3.38 | SHP2 N-SH2 domain T42A 5.2 | SHP2 N-SH2 domain T52S 3.94

B10: KIT_Y547_K550I_YF (peptide)
chain: ILTFKYLQIPM
active: SHP2 C-SH2 domain E139D 3.87 | SHP2 N-SH2 domain L43F 3.24 | SHP2 N-SH2 domain T52S 3.35
inactive: [1] 3.07 | SHP2 N-SH2 domain T42A 3.06 | [2] 2.91

B11: KIT_Y553_K550I (peptide)
chain: LQIPMYEVQWK
inactive: SHP2 C-SH2 domain E139D 1.2 | [1] 1.51 | SHP2 N-SH2 domain L43F 1.77 | SHP2 N-SH2 domain T42A 1.33 | SHP2 N-SH2 domain T52S 1.29 | [2] 1.86

B12: KIT_Y578 (peptide)
chain: PTQLPYDHKWE
inactive: SHP2 C-SH2 domain E139D 0.678 | [1] 0.596 | SHP2 N-SH2 domain L43F 0.801 | SHP2 N-SH2 domain T42A 0.75 | SHP2 N-SH2 domain T52S 0.744 | [2] 0.925

B13: KIT_Y578_E583K (peptide)
chain: PTQLPYDHKWK
inactive: SHP2 C-SH2 domain E139D 0.841 | [1] 0.706 | SHP2 N-SH2 domain L43F 0.68 | SHP2 N-SH2 domain T42A 0.627 | SHP2 N-SH2 domain T52S 0.663 | [2] 0.95

B14: KIT_Y823_N822I (peptide)
chain: KNDSIYVVKGN
inactive: SHP2 C-SH2 domain E139D 0.597 | [1] 0.496 | SHP2 N-SH2 domain L43F 0.506 | SHP2 N-SH2 domain T42A 0.392 | SHP2 N-SH2 domain T52S 0.566 | [2] 0.677

B15: KIT_Y823_N822K (peptide)
chain: KNDSKYVVKGN
inactive: SHP2 C-SH2 domain E139D 0.625 | [1] 0.633 | SHP2 N-SH2 domain L43F 0.595 | SHP2 N-SH2 domain T42A 0.497 | SHP2 N-SH2 domain T52S 0.565 | [2] 0.711

B16: KLB_Y906 (peptide)
chain: RLRKYYLGKYL
inactive: SHP2 C-SH2 domain E139D 0.309 | [1] 0.25 | SHP2 N-SH2 domain L43F 0.321 | SHP2 N-SH2 domain T42A 0.168 | SHP2 N-SH2 domain T52S 0.234 | [2] 0.266

B17: KLB_Y906_Y906H (peptide)
chain: RLRKYHLGKYL
inactive: SHP2 C-SH2 domain E139D 0.23 | [1] 0.26 | SHP2 N-SH2 domain L43F 0.255 | SHP2 N-SH2 domain T42A 0.245 | SHP2 N-SH2 domain T52S 0.259 | [2] 0.316

B18: KLB_Y910_Y906H_YF (peptide)
chain: FHLGKYLQEVL
inactive: SHP2 C-SH2 domain E139D 1.13 | [1] 1.27 | SHP2 N-SH2 domain L43F 0.919 | SHP2 N-SH2 domain T42A 1.33 | SHP2 N-SH2 domain T52S 1.17 | [2] 1.49

B19: KLHDC9_Y175 (peptide)
chain: PSARTYCYKQE
inactive: SHP2 C-SH2 domain E139D 1.03 | [1] 0.714 | SHP2 N-SH2 domain L43F 0.783 | SHP2 N-SH2 domain T42A 0.514 | SHP2 N-SH2 domain T52S 0.6 | [2] 0.752
